Laboratory results: paper PMC4336329 (PLoS ONE, 2015)
The whole screen tested about 310,000 compounds, of which about 2,200 (0.71%) showed an effect of 50% or more. The effect is printed as a negative number. Some of the results follow.

Biological target: human ether-à-go-go-related gene (hERG) potassium channel (human, UniProt Q12809)
Experiment: primary screen, population patch clamp on CHO cells stably expressing hERG

Chain of human ether-à-go-go-related gene (hERG) potassium channel (Q12809 whole entry, looked up): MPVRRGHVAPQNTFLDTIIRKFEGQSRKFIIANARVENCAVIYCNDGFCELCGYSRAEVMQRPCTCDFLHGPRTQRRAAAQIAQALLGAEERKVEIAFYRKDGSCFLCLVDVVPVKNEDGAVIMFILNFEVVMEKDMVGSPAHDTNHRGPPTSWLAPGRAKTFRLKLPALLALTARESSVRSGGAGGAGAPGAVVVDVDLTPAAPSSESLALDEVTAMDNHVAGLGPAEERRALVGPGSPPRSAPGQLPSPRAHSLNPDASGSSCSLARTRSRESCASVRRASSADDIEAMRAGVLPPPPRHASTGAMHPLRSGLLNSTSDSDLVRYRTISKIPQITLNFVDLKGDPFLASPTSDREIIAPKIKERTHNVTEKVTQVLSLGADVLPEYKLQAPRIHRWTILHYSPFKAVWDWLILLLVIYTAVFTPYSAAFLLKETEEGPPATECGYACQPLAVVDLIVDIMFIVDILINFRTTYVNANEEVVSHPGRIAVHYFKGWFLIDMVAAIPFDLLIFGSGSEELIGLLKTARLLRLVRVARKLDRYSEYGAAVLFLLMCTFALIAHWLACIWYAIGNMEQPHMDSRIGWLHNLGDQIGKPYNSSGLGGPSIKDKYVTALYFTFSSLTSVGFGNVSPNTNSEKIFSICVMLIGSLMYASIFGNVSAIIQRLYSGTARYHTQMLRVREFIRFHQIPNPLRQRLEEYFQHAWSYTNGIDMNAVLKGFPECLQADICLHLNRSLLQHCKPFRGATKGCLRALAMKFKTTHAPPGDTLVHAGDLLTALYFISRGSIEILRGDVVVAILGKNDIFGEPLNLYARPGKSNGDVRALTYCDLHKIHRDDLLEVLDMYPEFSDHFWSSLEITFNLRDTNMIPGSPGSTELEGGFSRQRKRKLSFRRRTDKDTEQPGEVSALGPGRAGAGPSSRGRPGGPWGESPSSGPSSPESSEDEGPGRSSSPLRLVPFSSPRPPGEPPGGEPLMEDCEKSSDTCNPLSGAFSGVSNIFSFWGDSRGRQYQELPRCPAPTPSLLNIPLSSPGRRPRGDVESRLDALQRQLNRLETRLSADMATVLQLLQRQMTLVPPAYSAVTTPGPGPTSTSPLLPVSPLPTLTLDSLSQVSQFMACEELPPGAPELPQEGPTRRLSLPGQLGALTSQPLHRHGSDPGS

| Compound | hERG current change (%, negative = inhibition) at 1uM [%] |
| --- | --- |
| Nc1ncnc2c1ncn2[C@@H]1O[C@H](CO)[C@@H](O)[C@H]1O | 15 |
| O=C(Nc1ccc2oc(-c3ccccc3F)nc2c1)c1ccc2c(c1)OCCO2 | 3.14 |
| COc1ccc(NC(=O)CCC(=O)N(Cc2ccc(OC)c(OC)c2)c2nccs2)cc1 | 14.5 |
| C/C(CC(=O)Nc1ccc2c(c1)OCO2)=N\NC(=O)c1ccccc1N | 9.31 |
| CC(Oc1ccccc1)C(=O)N1CCN(c2ccc(N3CCCCC3)nn2)CC1 (stereo not shown) | 4.79 |
| COCC(=O)NCCc1ccc(S(N)(=O)=O)cc1 | 17.3 |
| CCOc1cc(N2CCOCC2)c(OCC)cc1NC(=O)CN1C(=O)C2CC=CCC2C1=O (stereo not shown) | 6.39 |
| [O-][n+]1onc2c1CCc1c-2nc(-c2ccccc2)n1OCc1ccccc1 | 10.8 |
| Cc1ccnc(NC(=S)NC(=O)/C=C/c2ccco2)c1 | 11.6 |
| CC(=O)N1CCC(C(=O)Nc2ccc(S(=O)(=O)NCCc3ccccc3)cc2)CC1 | 16.4 |
| CC(NC(=O)/C(C#N)=C/c1ccc(OCC(=O)O)cc1)c1ccccc1 (stereo not shown) | 16.1 |
| COc1ccc(COC(=O)Nc2cc3c(C(F)(F)F)nn(C)c3s2)cc1 | 18.5 |
| CCCC(=O)NC1=C(C#N)C2(CCCC2)Cc2ccccc21 | 9.61 |
| O=C(Cc1ccccc1)N/N=C/c1cc(Br)cc(Cl)c1O | 9.33 |
| CCn1c(=O)c([N+](=O)[O-])c(N2CCSCC2)c2ccccc21 | 9.63 |
| Cc1csc2c(=O)sc(NC(=O)c3cccs3)nc12 | 8.61 |
| COc1ccc(C)cc1NC(C)C(=O)NC(=O)NC1CCCCC1 (stereo not shown) | 11.6 |
| COc1cc(C(=O)NCC(=O)Nc2c(C)cccc2C)ccc1OCc1ccccc1 | -0.468 |
| CC1Nc2ccccc2C(=O)N1NS(=O)(=O)c1ccccc1 (stereo not shown) | 0.585 |
| CCOC(=O)c1ccc(NC(=O)CN2C(=O)CNC2=O)cc1 | 16.9 |
| CC(C)COc1ccc(C(=O)OC2CC(C)(C)OCC2CN(C)C)cc1.Cl (stereo not shown) | 7.34 |
| O=c1ccc(-c2ccc(S(=O)(=O)Nc3ccc(F)cc3)s2)n[nH]1 | -1.8 |
| COc1ccc(OC2CCN(S(=O)(=O)c3ccc(F)cc3)CC2)cc1 | 6.67 |

| Compound | hERG current change (%, negative = inhibition) at 1uM [%] |
| --- | --- |
| O=C(Nc1nc2ccsc2c(=O)s1)c1ccc(F)cc1Cl | 4.39 |
| CCOC(=O)C1=C(c2ccc(OC)cc2)OC(N)=C(C#N)C1c1cccnc1 (stereo not shown) | 11.6 |
| Nc1ccc(S(N)(=O)=O)cc1N.O=S(=O)(O)O | 14.2 |
| O=C(CSc1nccc(=O)[nH]1)NCc1ccc2c(c1)OCO2 | 12.8 |
| CC1CCC(NC(=O)C2CC(=O)N(c3ccc4c(c3)OCCO4)C2)CC1 (stereo not shown) | 13.8 |
| COC(=O)c1cc(-c2ccc(S(=O)(=O)N3CCCCC3)cc2)c(C(F)(F)F)s1 | -4.67 |
| CCC(=O)c1ccc(OC(=O)c2cnccn2)cc1 | 15.8 |
| COC(=O)CCC(=O)Nc1ccccc1C(N)=O | 13.2 |
| CC(C)(C)NC(=O)C1CCC(CNS(=O)(=O)c2cccc3nsnc23)CC1 (stereo not shown) | 6.75 |
| COc1ccc(-n2c(COc3ccccc3)nnc2SCC(N)=O)cc1 | 10.3 |
| O=C(CN1C(=O)NC2(CCSC2)C1=O)N1CCN(c2ccc(F)cc2)CC1 (stereo not shown) | -3.67 |
| NC1=Nc2cccc3cccc1c23 | 12.8 |
| Cc1cccc(-c2cccc(NC(=O)C3CCCN(C(=O)c4csc(C)n4)C3)c2)c1 (stereo not shown) | 10.2 |
| O=C(NCCOc1ccccc1)C1CCCCC1 | 12.1 |
| O=C(/C=C/c1ccc(Cl)cc1)NC(=S)Nc1ccccc1C(=O)O | 12.2 |
| Cc1nc(CSc2nnc(C)s2)cs1 | -5.67 |
| c1ccc(-c2cncnc2)nc1 | 7.42 |
| CCOC(=O)n1c(=O)[nH]c2ccc(Br)cc21 | 7.43 |
| CC(C)n1c(=NC(=O)c2ccco2)c(C#N)cc2c(=O)n3ccccc3cc21 | -16.1 |
| O=C(c1ccc(COc2c(F)c(F)c(F)c(F)c2F)o1)N1CCN(Cc2ccc3c(c2)OCO3)CC1 | 5.12 |
| COc1cccc(N2C(=O)Nc3ccc(Br)cc3C2(O)C(=O)NCCN(C)C)c1 (stereo not shown) | 13.4 |
| COc1cc(NC(=O)c2ccc(-c3ccc(Br)cc3)o2)ccc1NC(=O)C(C)C | 3.88 |
| CCc1ccc(OC(C)C(=O)N(Cc2ccccc2)C2CCS(=O)(=O)C2)cc1 (stereo not shown) | 4.42 |
